Some of the results follow. At the low end of the ranking, values are background and their order means little. Measured with an extract: partners may take part in the binding.

In the experiment the target is T1, HNF4alpha8 (COS-7 nuclear extract) (UniProt P41235-5).
T1 sequence: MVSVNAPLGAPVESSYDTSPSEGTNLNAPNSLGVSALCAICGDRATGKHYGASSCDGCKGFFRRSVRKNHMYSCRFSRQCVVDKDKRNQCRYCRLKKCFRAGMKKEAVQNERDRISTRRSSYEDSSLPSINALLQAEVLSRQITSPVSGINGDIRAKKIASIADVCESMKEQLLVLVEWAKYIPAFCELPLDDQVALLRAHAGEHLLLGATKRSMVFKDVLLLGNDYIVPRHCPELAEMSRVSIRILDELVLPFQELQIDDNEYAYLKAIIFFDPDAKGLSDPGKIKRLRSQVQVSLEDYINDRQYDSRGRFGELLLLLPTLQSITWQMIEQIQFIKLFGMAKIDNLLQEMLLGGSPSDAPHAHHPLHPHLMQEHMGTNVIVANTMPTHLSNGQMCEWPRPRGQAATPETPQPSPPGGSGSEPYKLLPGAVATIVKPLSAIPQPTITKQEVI
Description: protein-binding microarray. The settings on record: COS-7 nuclear extract on double-stranded Agilent 4x180k PBM; binding buffer, salt, pH and temperature not given; high values mean tight binding; double strand, one strand shown; sequences stand for … in …GCCTAGGGAGATTAGAGTATCGGTCGA
In the case of CTGCCTCCCTGTCAGCTTCACTGATAGCGA, the binding signal (log2 normalized intensity) was -1.42.

Consider CTGTTTACCCACTTGGGGTTCTTGGATCCT, for which the binding signal (log2 normalized intensity) came to 1.19.

As for AAGTCTCAGAAGCTGGGAGACCACTGGTGT, the binding signal (log2 normalized intensity) was 0.192.

As to TTATCTCCAAGACCCTTCATAGCTTACTTG, the binding signal (log2 normalized intensity) is -0.778.

TTTGCCCCACTCTCCTCTGCCACTGTATCA: the binding signal (log2 normalized intensity) was determined as 2.88.

In the case of ATGGTGTTTGCTTTGTGAAGGCTTATCTGC, the binding signal (log2 normalized intensity) is 0.591.

With CTCGGCCTCATGGGCGATCCCGAAAGCCGG, the binding signal (log2 normalized intensity) is -1.42.

As to ACCCCTGATCTACAAGGTCCATAAAACCAG, the binding signal (log2 normalized intensity) came to 0.423.

With GGTCCGCAGGGCTGCCTCGCTTCCGGGTGG, the binding signal (log2 normalized intensity) was -1.34.

Turning to GCAGGTTCTCAGAAACGCCTGGCGCTTATC, the binding signal (log2 normalized intensity) is -1.25.

As to CCCCCGCAACTATTTATGAGTCTTGGGAAT, the binding signal (log2 normalized intensity) came out at 0.709.

For CACAAACATTCCAGTGGTCCCTGGAGATAA, the binding signal (log2 normalized intensity) was -1.21.

Take TTTTGCCTCCGCTCCGCCGGACCGGCCAAA: the binding signal (log2 normalized intensity) is -1.25.

On to AAAGATTCTTAGAGAGTTGGGCAAGACTCG, for which the binding signal (log2 normalized intensity) was -1.32.

Consider CATACCAGGTGTAAAGTCTGGCATACAGGG, for which the binding signal (log2 normalized intensity) worked out at 0.00259.

With AGGGCAAAGGTTAGCTTGGACAGAGTTTGT, the binding signal (log2 normalized intensity) was found to be 4.13.

On to GGATGGGGCCTGGGAGATAAGGGTTCAGAT, for which the binding signal (log2 normalized intensity) came out at 1.1.

Consider ATAAGGTAGGCACGTAAATAAGGATAAAGT, for which the binding signal (log2 normalized intensity) is -1.13.

For TCAATGATACCATCAGATACCTACTCTGCT, the binding signal (log2 normalized intensity) was -1.34.

In the case of AGTTGAGATTTATTCCCAGGTTCCAAAGGT, the binding signal (log2 normalized intensity) was determined as 2.89.

As for AGCTCCTGGGCCAAAGGGCATTCTGGAGTT, the binding signal (log2 normalized intensity) was determined as 3.41.

In the case of AGTGGGGTGGGGGCGAGAGAGTTCTATGGG, the binding signal (log2 normalized intensity) is -1.23.

Turning to GGGACGCGACCTCCGGGAAAGCTATCCCGG, the binding signal (log2 normalized intensity) is -1.33.

In the case of TGGTTTATCTGTTGTCAAACCCACATTCTT, the binding signal (log2 normalized intensity) is 0.308.

As for GATGGCAGCTTCATTCCAGCCCCATTCTGT, the binding signal (log2 normalized intensity) was 0.145.

Regarding GGTGAGTCTTTGCCCCTGGACTTTGAATTT, the binding signal (log2 normalized intensity) was 5.75.

Consider AATTTTCTCTGTATACTTGTCTTATCAGCA, for which the binding signal (log2 normalized intensity) is 0.594.

In the case of TCTGTTTGATTCCATGCTGATAATGGAATT, the binding signal (log2 normalized intensity) came to 1.8.

AAGGTTAAGCCATTGGGCAATCCAATGTCT: the binding signal (log2 normalized intensity) was -1.13.

Turning to TTCAAAGGTTAAGACTTTGAATCAGTAAAT, the binding signal (log2 normalized intensity) is 1.36.

GTATTGCTCAATGTCAAACACACTGTAACA: the binding signal (log2 normalized intensity) was -1.35.

GATGTGGAAATCTGGACTCAGCAGAACTTT: the binding signal (log2 normalized intensity) stood at 2.

AGACAGTCACTCCCACCCTTCCTGTTATGT: the binding signal (log2 normalized intensity) was 2.04.

Consider TTGGTGGAATCTGAACTTTTGGCTCCCTGG, for which the binding signal (log2 normalized intensity) was found to be 1.94.

CATCATGCCCTTTGGCCCCCAGAGCCCCGT: the binding signal (log2 normalized intensity) is 6.64.

For the sequence TGGATGTTGAACCTCTGTCCTTGGCCTCAC, the binding signal (log2 normalized intensity) was determined as 2.44.

As for TTCTTCCCTCACTTACATCCTCAGGTAAAG, the binding signal (log2 normalized intensity) came out at 1.5.

Consider TGGAGGGCAGTGGATGGGGGCGTTCCCCGA, for which the binding signal (log2 normalized intensity) was found to be 0.534.

Turning to ATTGTGATTCCTGTGATACCTTCTTTGCCT, the binding signal (log2 normalized intensity) is 0.781.

Consider AGAGCTCAGAAGCCACCAGTGCAAATATAA, for which the binding signal (log2 normalized intensity) is -1.44.

Regarding TGCATCAGTGCTGACCTACCTGACCTGGCA, the binding signal (log2 normalized intensity) is 2.13.

With AAACTTCACAATGGGCCCCAGTAAAAACAG, the binding signal (log2 normalized intensity) is -1.27.

Regarding CTTTTGAGTTTCTACCATAGACCCTGTTGG, the binding signal (log2 normalized intensity) was found to be 0.898.

For the sequence ACTTAGCCCTTGTCTTCCTCTCTGAAGGAT, the binding signal (log2 normalized intensity) was found to be 0.709.

Regarding GTGTGTCAACAGAGTGCTTAATCTCTGCTC, the binding signal (log2 normalized intensity) amounted to 0.938.

Regarding CACATGGCCGTAAAGATAAGAACGCTAGAC, the binding signal (log2 normalized intensity) was -1.38.

For the sequence ATTAACCCTTTAGTGCCTGGATCTTGGAAC, the binding signal (log2 normalized intensity) is 2.04.

On to GAAAACCCGGAGCGGAGCATCCCTCGGGCC, for which the binding signal (log2 normalized intensity) was -1.31.

Consider TGTGCCTCTTAGTGAAGGATGGGGACCTTG, for which the binding signal (log2 normalized intensity) was 1.41.

In the case of AGAGAGTCTGGCTGACTAACAAGCTGCCAA, the binding signal (log2 normalized intensity) was -1.3.

On to ATCCAGAGTGGGACAAAGTTCCCCGGGCAG, for which the binding signal (log2 normalized intensity) was -0.66.

In the case of AATGTACAAAGGTCAACGGCACAAGGAGAT, the binding signal (log2 normalized intensity) stood at 5.27.

On to TTCCACAAGGTCCCATGGCTAATCTGTGAC, for which the binding signal (log2 normalized intensity) is -0.0962.

Take TCAAATCTAAACCTAGCAGCCTGCCACCCA: the binding signal (log2 normalized intensity) is -1.22.

On to GATAAGATTTTAGAAGTCACTCCTTCCTCA, for which the binding signal (log2 normalized intensity) is -1.35.

Take GAGTGGGACAAAGTTCCCCGGGCAGCTGTG: the binding signal (log2 normalized intensity) came to 0.567.

In the case of TCAGAGGAATGTCTGACCAACCTGTCCAAA, the binding signal (log2 normalized intensity) was -0.555.

For CGCCCGCGCTGCTCGCAAGCAGAACCTTGG, the binding signal (log2 normalized intensity) is -1.42.

On to CCACTGGAGTCTTGTTTGTCAAGTTTGGTA, for which the binding signal (log2 normalized intensity) turned out to be 1.71.

As to TCTTGGCCAACAACTAGGGCAAAGGTTAGC, the binding signal (log2 normalized intensity) was 5.45.

On to TATCTCACTCCCACACTGGTAACCTTTAGT, for which the binding signal (log2 normalized intensity) worked out at 2.55.

As for AAGGAGAACTGAGTAGGAGAATGTTAATGA, the binding signal (log2 normalized intensity) is -1.25.

For GAGGCAGCAAGGTCAAAGTGCGTCCTGTGG, the binding signal (log2 normalized intensity) amounted to 4.65.

Turning to GGCTGATGTCTTTCTGGCTGGAGAGGAGGT, the binding signal (log2 normalized intensity) is 0.3.

In the case of CTGGGTGGGGATAAGAAAAGATCAAGGGCA, the binding signal (log2 normalized intensity) was -0.912.

As to ACTGGTTTCTTGTCTGCCCCAGGGCTTTGC, the binding signal (log2 normalized intensity) was determined as 1.67.

Turning to TCTCTTATAGGTGTTTATAAAGTTGGGAAA, the binding signal (log2 normalized intensity) was found to be 1.13.

For the sequence GCAACTACAAGGAGCAGCCTAGTAAAAGGT, the binding signal (log2 normalized intensity) is -1.31.

In the case of AGAAAATGTGCCCTTTGGACAGAAATATCA, the binding signal (log2 normalized intensity) stood at 5.

For GAGAGTATGGGATGATCAGTAAGGAGAGGG, the binding signal (log2 normalized intensity) was -1.36.

As for AAGCAAGCCCTATTAGGCATTTCATTTGCC, the binding signal (log2 normalized intensity) was -1.28.

Consider GATGTAATAGGGTGACAGTATCAAAGTCCC, for which the binding signal (log2 normalized intensity) came out at 3.05.

With GGAGCAAAGGTTGGGGGTGGGGAGGAAGCA, the binding signal (log2 normalized intensity) was -1.32.

The values above are taken from paper PMC10726135.
